# According to ChEMBL document CHEMBL1133677, “Carbonic anhydrase and matrix metalloproteinase inhibitors: sulfonylated amino acid hydroxamates with MMP inhibitory properties act as efficient inhibitors of CA isozymes I, II, and IV, and N-hydroxysulfonamides inhibit both these zinc enzymes” (J Med Chem, 2000):
# Experiments:
# Neutrophil collagenase = Neutrophil collagenase (Homo sapiens, UniProt P22894)
# [1] = target: Matrix metalloproteinase-9 (Homo sapiens, UniProt P14780)
# Interstitial collagenase = target: T1, Interstitial collagenase (Homo sapiens, UniProt P03956)
# T1 sequence (P03956 whole entry): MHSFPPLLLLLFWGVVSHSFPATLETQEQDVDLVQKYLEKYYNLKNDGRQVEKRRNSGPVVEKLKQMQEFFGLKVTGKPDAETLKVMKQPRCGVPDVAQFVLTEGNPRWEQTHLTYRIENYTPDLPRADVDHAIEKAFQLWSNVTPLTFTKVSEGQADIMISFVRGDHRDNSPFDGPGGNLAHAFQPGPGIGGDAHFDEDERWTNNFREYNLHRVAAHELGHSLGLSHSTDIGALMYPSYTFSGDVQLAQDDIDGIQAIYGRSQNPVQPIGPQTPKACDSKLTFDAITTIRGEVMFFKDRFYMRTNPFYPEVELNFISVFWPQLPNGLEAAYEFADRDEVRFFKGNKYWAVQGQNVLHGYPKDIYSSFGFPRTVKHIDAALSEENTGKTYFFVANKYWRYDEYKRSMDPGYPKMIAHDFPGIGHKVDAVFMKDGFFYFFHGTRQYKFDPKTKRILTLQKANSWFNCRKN
# [2] = target: 72 kDa type IV collagenase (Homo sapiens, UniProt P08253)
# 72 kDa type IV collagenase, sequence (P08253 whole entry): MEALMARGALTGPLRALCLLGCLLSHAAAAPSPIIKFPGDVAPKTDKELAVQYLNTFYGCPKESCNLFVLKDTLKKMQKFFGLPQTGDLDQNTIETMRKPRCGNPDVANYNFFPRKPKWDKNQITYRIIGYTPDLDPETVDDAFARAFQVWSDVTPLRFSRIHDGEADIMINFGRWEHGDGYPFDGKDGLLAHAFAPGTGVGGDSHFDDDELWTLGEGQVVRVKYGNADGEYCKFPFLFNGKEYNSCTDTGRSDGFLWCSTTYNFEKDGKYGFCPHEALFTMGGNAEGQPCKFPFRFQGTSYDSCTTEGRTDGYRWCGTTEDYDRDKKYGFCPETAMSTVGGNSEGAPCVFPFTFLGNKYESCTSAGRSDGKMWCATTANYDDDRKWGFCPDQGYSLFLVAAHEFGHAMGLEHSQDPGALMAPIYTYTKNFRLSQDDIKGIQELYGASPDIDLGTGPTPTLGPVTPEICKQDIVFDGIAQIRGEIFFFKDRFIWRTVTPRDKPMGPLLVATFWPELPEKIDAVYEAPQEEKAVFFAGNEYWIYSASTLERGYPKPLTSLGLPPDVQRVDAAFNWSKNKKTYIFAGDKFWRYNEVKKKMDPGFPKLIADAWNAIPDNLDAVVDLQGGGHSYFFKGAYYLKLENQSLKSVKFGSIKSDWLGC
# Carbonic anhydrase 1 = Carbonic anhydrase 1 (Homo sapiens, UniProt P00915)
# Carbonic anhydrase 1, sequence (P00915 whole entry): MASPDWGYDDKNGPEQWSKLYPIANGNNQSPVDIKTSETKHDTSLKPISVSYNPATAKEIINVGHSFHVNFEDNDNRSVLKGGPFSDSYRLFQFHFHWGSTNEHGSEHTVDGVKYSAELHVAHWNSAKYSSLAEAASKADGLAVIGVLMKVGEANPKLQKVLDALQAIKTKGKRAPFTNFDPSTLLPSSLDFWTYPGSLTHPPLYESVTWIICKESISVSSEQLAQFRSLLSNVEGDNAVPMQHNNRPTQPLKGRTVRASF
# Matrix metalloproteinase-9, sequence (P14780 whole entry): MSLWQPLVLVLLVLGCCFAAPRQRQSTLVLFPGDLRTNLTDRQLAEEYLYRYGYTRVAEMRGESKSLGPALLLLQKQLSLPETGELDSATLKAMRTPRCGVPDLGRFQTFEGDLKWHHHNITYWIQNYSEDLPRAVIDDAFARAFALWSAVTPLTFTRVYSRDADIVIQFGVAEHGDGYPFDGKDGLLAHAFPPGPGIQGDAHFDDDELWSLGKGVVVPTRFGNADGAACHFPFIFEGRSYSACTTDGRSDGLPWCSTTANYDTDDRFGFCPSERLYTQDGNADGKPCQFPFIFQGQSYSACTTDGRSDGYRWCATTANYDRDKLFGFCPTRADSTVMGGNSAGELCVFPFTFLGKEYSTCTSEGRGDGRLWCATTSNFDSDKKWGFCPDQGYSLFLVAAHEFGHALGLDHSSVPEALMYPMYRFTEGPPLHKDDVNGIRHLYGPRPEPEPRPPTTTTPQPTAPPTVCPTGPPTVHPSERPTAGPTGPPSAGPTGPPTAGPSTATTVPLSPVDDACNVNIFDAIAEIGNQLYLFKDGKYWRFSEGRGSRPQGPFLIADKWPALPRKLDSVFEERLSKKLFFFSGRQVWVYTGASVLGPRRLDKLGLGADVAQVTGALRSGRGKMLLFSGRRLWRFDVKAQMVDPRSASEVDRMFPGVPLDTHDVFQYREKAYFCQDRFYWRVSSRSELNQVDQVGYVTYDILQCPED
# Neutrophil collagenase, sequence (P22894 whole entry): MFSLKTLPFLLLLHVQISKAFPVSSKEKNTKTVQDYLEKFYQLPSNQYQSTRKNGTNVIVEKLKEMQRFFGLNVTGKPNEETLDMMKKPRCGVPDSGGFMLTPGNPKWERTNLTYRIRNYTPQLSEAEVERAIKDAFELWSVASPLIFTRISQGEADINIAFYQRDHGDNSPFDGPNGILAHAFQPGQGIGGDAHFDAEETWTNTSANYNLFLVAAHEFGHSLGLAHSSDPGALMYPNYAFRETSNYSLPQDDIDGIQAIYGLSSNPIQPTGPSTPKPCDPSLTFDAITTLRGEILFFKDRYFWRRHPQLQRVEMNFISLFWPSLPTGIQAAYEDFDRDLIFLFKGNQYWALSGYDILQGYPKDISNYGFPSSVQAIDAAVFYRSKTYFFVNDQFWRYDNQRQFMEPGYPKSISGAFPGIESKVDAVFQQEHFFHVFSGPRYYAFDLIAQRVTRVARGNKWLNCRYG
SMILES,Ki (Neutrophil collagenase) [µM],Ki [1] [µM],Ki (Interstitial collagenase) [µM],Ki [2] [µM],Ki (Carbonic anhydrase 1) [µM]
O=[N+]([O-])c1cccc(S(=O)(=O)NO)c1,16,13,37,23,–
O=S(=O)(NO)C(F)(F)C(F)(F)C(F)(F)C(F)(F)C(F)(F)C(F)(F)C(F)(F)C(F)(F)F,23,21,70,14,–
COc1ccc(S(=O)(=O)NO)cc1,16,12,33,14,–
CC(=O)Nc1ccc(S(=O)(=O)NO)cc1,12,10,29,9,–
O=S(=O)(NO)C(Cl)(Cl)Cl,> 100,> 100,> 100,> 100,–
O=S(=O)(NO)c1ccc(Cl)cc1,70,76,71,70,–
CN(C)S(=O)(=O)NO,> 100,> 100,> 100,> 100,–
O=S(=O)(NO)C(F)(F)F,> 100,> 100,> 100,> 100,–
O=S(=O)(NO)c1ccc(F)cc1,75,73,74,72,–
O=S(=O)(NO)c1cccc(C(F)(F)F)c1,1.5,1.7,0.9,0.12,–
O=S(=O)(Cc1ccccc1)NO,76,83,95,73,–
O=C(O)c1ccccc1S(=O)(=O)NO,0.12,0.1,0.08,0.09,–
CS(=O)(=O)NO,> 0.1,> 0.1,> 0.1,> 0.1,> 0.1
